This passage reports binding signal results from publication PMC12136788.

The list shows a part of the results.

T1: UNK ZnF1-3 (human, UniProt Q9C0B0 31-174)
T1 sequence: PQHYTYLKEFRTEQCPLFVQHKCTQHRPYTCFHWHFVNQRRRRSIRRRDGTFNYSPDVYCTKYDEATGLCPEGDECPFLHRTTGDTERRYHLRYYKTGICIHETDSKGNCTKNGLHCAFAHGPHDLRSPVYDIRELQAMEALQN

B1: 38265305_38266082_1035_CDS_ENSG00000172939_ENST00000311806|human|control|control (ssRNA)
RNA: GGGAGUUCUACAGUCCGACGAUCCUGCAGUGUCAGCAUUAAAACCUUCAUUGGUGGAUAUUUAUGAUAAGGAGCCGCCCCUGUAGCCAAUUCAAUUGCUGUAAUUCCAAAACUCCAAAUAUCAGCUUUGAAAUCAUAACCACGCAACAGAGGAUUGAGCAUCA
B2: chr17:85413340:85413341:+_ENSMUSG00000061130_ENSMUST00000080217|mus_mus|FALSE|FALSE (ssRNA)
RNA: GGGAGUUCUACAGUCCGACGAUCAGUCAAUCUUAAACUAUCAUAAAGGUGUAUGCAAAGGCCUUUAAAAAAACCAAGACUAUAGGAAUAUAAGAAAACUAGUUUUUCAAGAUUCAAAUAACAAAAUGGUUAUAUAAAAGCACACAACAGAGGAUUGAGCAUCA
B3: chr7:44244176:44244177:+_ENSG00000106636_ENST00000223369|hu_mus|hu_hu_hu_mus_False|1_78 (ssRNA)
RNA: GGGAGUUCUACAGUCCGACGAUCACUGUCGCUCCGGACGUAGACAUGGCAAAGAUAGUCUUGUUCUUUGACAGAAGCUCUGCUGCCUUUCCCCGAGCGUUCCACAAUCAGUUGACUUGUAAAGGUCAUGAAUUCCUGAACGCUCAACAGAGGAUUGAGCAUCA
B4: 134976240_134981154_508_3pUTR_ENSMUSG00000059713_ENSMUST00000030606|mouse|control|control (ssRNA)
RNA: GGGAGUUCUACAGUCCGACGAUCGCUUGCUGAAGUUGAUCCUCACUCUGCGAAAGCUCUUGAACAACUGGAAUGUGACCUGGUCAUCGUAGAGGGUGAACAGGGCCUCAAACCUCUCCUUUUGCUCUUGGACCUCAAACACUGCAACAGAGGAUUGAGCAUCA
B5: chr5:134235298:134235299:+_ENSG00000113621_ENST00000507024|hu_mus|FALSE|FALSE (ssRNA)
RNA: GGGAGUUCUACAGUCCGACGAUCUUGUCCUGGAAUCAGCCACCGAAUACUCUCAGUGCGGAUGGUAGCAUACAUAAUGAAACUAAUUAAAAAGAACAAGGAAAACACCAGCAACCAAUCCACAGUCUUUAUCAAAGUGCUGGGCAACAGAGGAUUGAGCAUCA
B6: 103108383_103108503_1224_CDS_ENSG00000136891_ENST00000374902|human|control|control (ssRNA)
RNA: GGGAGUUCUACAGUCCGACGAUCGAGUUUCCACAGAAGGGAAAUAAUAUUAAGAACUUGCUGCAUAACCUGUAGAGGUUCUCGUUCUAUACCAUUCCCAACAGGAGUAGCUAGUUGUGGAGGUACAGCUUCAACCCAGCAUUCCAACAGAGGAUUGAGCAUCA
B7: chr5:121768680:121768681:+_ENSMUSG00000042744_ENSMUST00000119892|mus_hu|FALSE|FALSE (ssRNA)
RNA: GGGAGUUCUACAGUCCGACGAUCUUGGGCAGUUUUCUUUUUGUCGCCUGUGGAUAGUCCACUCACAGUCUCUGGGUUGAUAGACUCUACAGGUGGCCCAAUGCUGACGAUGAGGCCUGACUGUGCCCACUUGGUGGCUUUCCGCAACAGAGGAUUGAGCAUCA
B8: chr6:160200703:160200704:-_ENSG00000120438_ENST00000392168|hu_hu|FALSE|FALSE (ssRNA)
RNA: GGGAGUUCUACAGUCCGACGAUCAUGAAAAGCUCUUAAUUUUGCAACCAGAUCUGUGGAGUCCUGGGCAGCAUUAACUGCUAGUGUAUUGGGAAUAACAAGAAGUGAUCUUGCAAACUCUGCAAUCGCAAGCUGUUCCCGAGACAACAGAGGAUUGAGCAUCA
B9: 56000718_56002823_2382_CDS_ENSMUSG00000022601_ENSMUST00000050248|mouse|control|control (ssRNA)
RNA: GGGAGUUCUACAGUCCGACGAUCUCCUGUGUGAAUACUCAUAUGUUCCUGAAGACUCCGCUUGGUAACAAAUGACUUGACACACAGUUCACACUGAAACUGCUUUUGUGAUUGAUGCAGACUUUGAUGCAAUUUUAGACCAUGCAACAGAGGAUUGAGCAUCA
B10: chr5:125866394:125866395:-_ENSMUSG00000008348_ENSMUST00000136312|mus_hu|FALSE|FALSE (ssRNA)
RNA: GGGAGUUCUACAGUCCGACGAUCACAACUUUAUUGAAAGGAAAGUGCAAUGAAAUUUGUUGAAACCUUAAAAGGGGAAACUUAGACACCCCCCCUCAAGCGCAGGACCAAGUGCAGAGUGGACUCUUUCUGGAUGUUGUAGUCCAACAGAGGAUUGAGCAUCA
B11: chr18:35732044:35732045:+_ENSMUSG00000037236_ENSMUST00000166793|perfect_dup|FALSE|FALSE (ssRNA)
RNA: GGGAGUUCUACAGUCCGACGAUCAAUUUGGGGCAAGUUCUCAGGAGUAAUCUUGUCCUCUGGAUAGCGACUCAGUUCAUCUAAGUCUCUAGCAGACAGACCAAAGCUGGCCAAAAUAUUACUGGCCUGGUCUGUAUCUCCACGCAACAGAGGAUUGAGCAUCA
B12: chr4:76721835:76721836:+_ENSG00000138768_ENST00000264904|hu_mus|hu_hu_hu_mus_True|8_68 (ssRNA)
RNA: GGGAGUUCUACAGUCCGACGAUCGUUUGGCUGGGGUUUCUGAGACGCUCUGGAAUAUAACUCAUGUUGCUAAUAAAAUCCUAGUUUCUCUAUGAAAUUCUCUUUGCCAAUCCUCUUCUCUAUUAGUGUUUUAGCUUUCUCUUUCAACAGAGGAUUGAGCAUCA
B13: chr10:118639881:118639882:-_ENSMUSG00000020114_ENSMUST00000020315|mus_mus|motif|central (ssRNA)
RNA: GGGAGUUCUACAGUCCGACGAUCAACAUCAGUGGCUUUACAACCUCUGGCUUAUGGAAAUACAGACUUCUGAAGUAAAAGCGGCAAAAACAACAAUGGAAGAAAGCCAAACAAACUUCCCGGGAAGGAAAGUAAAGUGGAACACAACAGAGGAUUGAGCAUCA
B14: chr17:45747064:45747065:+_ENSG00000108424_ENST00000290158|hu_hu|hu_hu_hu_mus_True|38_38 (ssRNA)
RNA: GGGAGUUCUACAGUCCGACGAUCGCCCACAGUCCACGCUGUUGUGUCUCGAACAACUACACUGGGGUCUUUCAUUAGUUCUAUUAGGGUGGGCAUAGCCUGUAUAACUAAUGGUUUCAGUUGAUUAGGCUCUGGUCCUUCCAACAACAGAGGAUUGAGCAUCA
B15: chr7:125832625:125832626:-_ENSMUSG00000033917_ENSMUST00000038791|mus_mus|FALSE|FALSE (ssRNA)
RNA: GGGAGUUCUACAGUCCGACGAUCAAGGUGGGACUCGUAGUAAUUCUUUUCAUCAAAGGUAUUGACAGUCCAACUCACAACCUGGAUUCCUUUAGCUGACCACUUCUUCAAAUAGUCCGGGGAGACAAAAUCCUUCUGCAUGAGCAACAGAGGAUUGAGCAUCA
B16: chr14:102368134:102368135:+_ENSG00000078304_ENST00000445439|hu_hu|hu_hu_hu_mus_True|88_88 (ssRNA)
RNA: GGGAGUUCUACAGUCCGACGAUCAAGAGGCUCCAUGAUCUUCACAAAUUCUGAUGGUUCAAUUACAUCUAAAAUUUCUUCUAAUUCAUUUAAGAACAUUACUUCUUUUGGACUGUGAGUCUUUGGCCAGUAUUUGAGAAGUGCCAACAGAGGAUUGAGCAUCA
B17: chr2:198351390:198351391:-_ENSG00000144381_ENST00000345042|hu_hu|hu_hu_hu_mus_False|8_18 (ssRNA)
RNA: GGGAGUUCUACAGUCCGACGAUCUCAUUCCCACCCUCCACAGAAAGGCUGCUUCUGAACUCUCAUGUGGUGACACAGCGCUACAGUCCUGAUGCUCACAGAACAGUAGAGAUGCCUCCUCAGUGAUUUAAGUUGAAAGGACACCAACAGAGGAUUGAGCAUCA
B18: chr2:9628331:9628332:+_ENSG00000134330_ENST00000482918|hu_mus|FALSE|FALSE (ssRNA)
RNA: GGGAGUUCUACAGUCCGACGAUCUUCCUCCACAUCCUUCCAGUAAGGAAGCAGCCACGGCAGAGAUGAGACCUUCUUGUCCAGCAGUGGACAGAGGUUUAAGAACAGAAACUCAUUUCCCAUUGGUGAUAAAUGCAGGCCAUCCAACAGAGGAUUGAGCAUCA
B19: chr11:124637793:124637794:-_ENSG00000120458_ENST00000374979|hu_mus|FALSE|FALSE (ssRNA)
RNA: GGGAGUUCUACAGUCCGACGAUCCUGUGAGCUGAUCUCAGCAUAAUGGUAACGAAUAUCCUCUUUCCAGCGGGUGUUAUAGCCAAUUCCAAAAAUGGCCAAUUUAUUGGAAAGAUGGAGCCUUGAGAAGUCUGUCCAACUCUGCAACAGAGGAUUGAGCAUCA
B20: chr2:179515052:179515053:+_ENSMUSG00000000305_ENSMUST00000000314|mus_hu|mus_mus_mus_hu_False|18_38 (ssRNA)
RNA: GGGAGUUCUACAGUCCGACGAUCGCUGUCCCAUGCAGUCACCGUGAACGCCACCUGCUCGGAGGGGACCUGCAGCUCCCGGGUGGCGAAGACUGUCCCAUCCGCCCCAACUUUGAAGUCCAAGCUGUUGGUCUCAUAUUGUGUCAACAGAGGAUUGAGCAUCA
B21: 31378140_31381174_497_CDS_ENSMUSG00000025609_ENSMUST00000026699|mouse|control|control (ssRNA)
RNA: GGGAGUUCUACAGUCCGACGAUCAAAGUUAAAGCUGGGCCCCCAGGACAAAAGUGGAACAAUUUUAAUGAAUCGACAAGGGAACAUCUGUUCAUCAAUUUUAUGUUUCAAGGUAAAUGUCUCUUUGUUAUAAUCAUUCUUCAGCAACAGAGGAUUGAGCAUCA
B22: chr18:9954606:9954607:+_ENSG00000101558_ENST00000400000|hu_hu|motif|central (ssRNA)
RNA: GGGAGUUCUACAGUCCGACGAUCACCAUUUCCCCAAGGAAUACCUCUUGGCAUUUCCUGAAUGAGUGGGAUUAGCAAUCGGAAUAAAUCAUAUUUCAAGAGGUAACAGCAACAGAUAAAAUUUAAAGGGAUUAUUAAAAUAACCAACAGAGGAUUGAGCAUCA

In the assay the target is T1, UNK ZnF1-3. In words: nsRBNS (natural sequence RNA bind-n-seq); RBNS binding buffer (assumed for nsRBNS): 25 mM Tris pH 7.5, 150 mM KCl, 3 mM MgCl2, 0.01% Triton X-100, 500 ug/ml BSA, 20 U/ml SUPERase-In, 4 C; UNK is unkempt and MSI1 is Musashi-1; names of the RNAs are library labels; protein concentration not given here; high values mean tight binding.
B1 had a binding signal of 1.15 enrichment R.

The molecule B2 registered a binding signal of 1.69 enrichment R.

As for B3, the binding signal is 0.509 enrichment R.

B4: the binding signal amounted to 0.88 enrichment R.

Molecule B5 yielded a binding signal of 1.82 enrichment R.

B6: the binding signal was found to be 0.85 enrichment R.

As to B7, the binding signal came out at 0.417 enrichment R.

For B8, the binding signal is 0.921 enrichment R.

Regarding B9, the binding signal is 0.659 enrichment R.

Consider B10, for which the binding signal was determined as 1.57 enrichment R.

With B11, the binding signal came out at 0.399 enrichment R.

With B12, the binding signal was found to be 0.679 enrichment R.

Consider B13, for which the binding signal worked out at 1.83 enrichment R.

B14 came in with a binding signal of 0.507 enrichment R.

B15 came in with a binding signal of 1.49 enrichment R.

As to B16, the binding signal was 0.715 enrichment R.

Take B17: the binding signal came to 1.39 enrichment R.

Consider B18, for which the binding signal was 1.2 enrichment R.

Turning to B19, the binding signal turned out to be 0.702 enrichment R.

Regarding B20, the binding signal came to 0.751 enrichment R.

Molecule B21 returned a binding signal of 1.02 enrichment R.

Molecule B22 came in with a binding signal of 3.2 enrichment R.
